Assay results published in paper PMC4336329 (PLoS ONE, 2015).
Among all 310,000 compounds or so, about 2,200 (0.71%) showed an effect of 50% or more. The effect is printed as a negative number. The list shows a part of the results.

Target: human ether-à-go-go-related gene (hERG) potassium channel (human, UniProt Q12809)
Assay: primary screen, population patch clamp on CHO cells stably expressing hERG

Chain of human ether-à-go-go-related gene (hERG) potassium channel (Q12809 whole entry, looked up): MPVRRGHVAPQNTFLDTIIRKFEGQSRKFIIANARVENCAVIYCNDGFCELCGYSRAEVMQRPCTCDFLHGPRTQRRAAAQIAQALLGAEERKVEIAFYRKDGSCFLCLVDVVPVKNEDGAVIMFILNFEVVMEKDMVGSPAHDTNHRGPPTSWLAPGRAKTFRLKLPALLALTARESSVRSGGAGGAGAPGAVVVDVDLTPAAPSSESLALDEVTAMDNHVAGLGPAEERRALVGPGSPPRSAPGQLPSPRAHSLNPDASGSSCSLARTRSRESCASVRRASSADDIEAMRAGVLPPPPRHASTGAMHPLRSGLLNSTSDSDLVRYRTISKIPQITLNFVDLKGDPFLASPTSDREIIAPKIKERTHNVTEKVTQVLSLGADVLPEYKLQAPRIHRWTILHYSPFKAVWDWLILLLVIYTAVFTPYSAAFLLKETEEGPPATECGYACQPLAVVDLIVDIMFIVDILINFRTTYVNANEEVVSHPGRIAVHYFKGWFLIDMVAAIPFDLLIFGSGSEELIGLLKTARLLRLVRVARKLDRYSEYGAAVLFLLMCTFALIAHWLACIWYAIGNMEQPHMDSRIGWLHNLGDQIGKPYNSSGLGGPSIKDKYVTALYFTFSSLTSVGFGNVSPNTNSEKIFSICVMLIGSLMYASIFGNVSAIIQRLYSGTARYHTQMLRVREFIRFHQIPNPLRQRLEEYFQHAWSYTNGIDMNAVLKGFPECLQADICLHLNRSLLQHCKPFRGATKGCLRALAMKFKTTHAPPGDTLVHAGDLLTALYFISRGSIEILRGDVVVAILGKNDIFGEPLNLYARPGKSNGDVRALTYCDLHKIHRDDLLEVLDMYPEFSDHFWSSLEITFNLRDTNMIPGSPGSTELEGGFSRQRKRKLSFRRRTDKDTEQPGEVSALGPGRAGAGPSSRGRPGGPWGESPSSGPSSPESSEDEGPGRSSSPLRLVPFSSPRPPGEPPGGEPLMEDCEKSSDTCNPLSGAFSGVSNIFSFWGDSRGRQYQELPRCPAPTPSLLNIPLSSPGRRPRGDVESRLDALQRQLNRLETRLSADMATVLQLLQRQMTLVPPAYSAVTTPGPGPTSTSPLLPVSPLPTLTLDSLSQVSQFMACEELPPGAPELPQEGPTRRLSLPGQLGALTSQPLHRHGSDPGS

Structure (SMILES)	hERG current change (%, negative = inhibition) at 1uM [%]
CCCNC(=O)COC(=O)c1cc2c(=O)n3ccccc3nc2s1	14.1
COc1cccc(C(c2sc3ncnn3c2O)N2CC(C)OC(C)C2)c1 (stereo not shown)	4.29
COCCn1c(SCC(=O)NC2CCCCC2C)nc2ccccc2c1=O (stereo not shown)	9.71
COc1ccc(N2CCN(CCNC(=O)Nc3ccc(C)cc3Cl)CC2)cc1	5.1
COc1ccc2[nH]c3c(=O)n(CCCC(=O)NC4CCC(C)CC4)c(=S)[nH]c3c2c1 (stereo not shown)	6.72
Brc1ccc(-c2c[n+]3c(n2-c2ccccc2)SCC3)cc1.[Br-]	-3.12
O=S(=O)(Nc1cnc2ccccc2c1)N1CCCCCC1	-4.76
CC(C)OCCCNc1ccc(N2C(=O)CCCC2=O)cc1[N+](=O)[O-]	-0.197
CCSc1nnc(CNc2ccc(F)cc2)n1CC1CCCO1 (stereo not shown)	5.32
COc1cc(CC(=O)OCC(=O)NCc2ccc(C)cc2)cc(OC)c1OC	7.81
Cc1nc(S(=O)(=O)Nc2ccc3c(c2)OCCO3)cn1C	15.4
Cc1nc2c(C(=O)NCc3ccc(F)cc3)c[nH]n2c(=O)c1Cl	17.9
COc1ccccc1CNC(=O)CC(C)C	10.7
Cc1noc(C)c1COC(=O)c1cc(C)n(-c2ccccc2)c1C	7.81
CCOc1cc(C)cc2oc(=O)c3c(c12)CCCC3	2.06
C[C@]12C(=O)N(c3ccc(F)cc3)C(=O)N1[C@@H]1c3ccccc3OC[C@@H]1[C@H]2c1ccccc1	5.13
CCOC(=O)Cn1cnc2c(nnn2-c2ccc(C)cc2)c1=O	11.4
Cc1ccc(Cn2ccc(NC(=O)c3cc(-c4cccc(Cl)c4)on3)n2)cc1	0.799
CCC(C)SCC(=O)Nc1ccc(S(=O)(=O)N2CCOCC2)cc1OC (stereo not shown)	4.5
Cl.OCCN(Cc1ccccc1)CC(O)COc1ccc(-c2ccccc2)cc1 (stereo not shown)	4.44

Structure (SMILES)	hERG current change (%, negative = inhibition) at 1uM [%]
C=CCOc1cccc(C2C(C(=O)c3ccc(C)o3)=C(O)C(=O)N2CCN(C)C)c1 (stereo not shown)	6.17
CCOC(=O)CSc1nc(=O)n2ccccc2n1	13.7
CCOC(=O)c1cc2c(n(-c3ccc(C)cc3)c1=O)CCCC2=O	6.86
COc1ccc(Oc2ccc(C(F)(F)F)cc2NC(=O)c2ccc(C)cc2)cc1	10.6
Cc1ccccc1CC(=O)Nc1ccc2c(C)cc(=O)oc2c1	13.1
Clc1ccc(C2=CC(c3ccco3)n3ncnc3N2)cc1 (stereo not shown)	3.08
COc1ccc(CCNc2nc(C)nc3c2nnn3Cc2ccccc2)cc1	11
OCCc1c[nH]c2ccc(OCc3ccccc3)cc12	11.3
CCOC(=O)c1cccc(NC(=O)CCOc2ccccc2)c1	22.6
Cc1ccc(S(=O)(=O)N(C)C)cc1NC(=O)CCc1c[nH]c2ccccc12	7.93
CCOC(=O)N1CCN(Cc2nc(-c3ccc(Cl)cc3)no2)CC1	4.38
Cc1ccc(/C=N/NC(=O)c2nnn(-c3nonc3N)c2CN(C)C)s1	9.54
COc1cnc(-c2ccccn2)nc1Oc1ccc(C(C)(C)C)cc1	18.1
O=C(O)C1C2C=CC3(CN(Cc4ccccn4)C(=O)C13)O2 (stereo not shown)	15.5
COC(=O)C1=C(C)N(CCCCCC(=O)O)C(=O)NC1c1ccccc1 (stereo not shown)	2.67
O=C(NC(=S)Nc1ccccc1N1CCCCC1)c1ccc(F)cc1	12.4
Cc1c(OC(C)C(=O)NCCCN2CCCC2=O)ccc2c3c(c(=O)oc12)CCCC3 (stereo not shown)	9.53
COC(=O)c1cccc(NC(N)=S)c1	5.47
CCOC(=O)c1ccccc1NC(=O)COC(=O)c1cc([N+](=O)[O-])ccc1N1CCOCC1	5.18
COc1ccc(C(=O)Cc2ccc(F)cc2)c(OC)c1	14.2

Structure (SMILES)	hERG current change (%, negative = inhibition) at 1uM [%]
Cc1cc(NS(=O)(=O)c2ccc(NC(=O)C(C)Oc3cc(C)c(Cl)c(C)c3)cc2)no1 (stereo not shown)	-1.07
CCNC(=O)CC1C(=O)N(c2cccc(OC)c2)C(=O)N1CCOC (stereo not shown)	12.5
CC(NCc1ccc(N(C)C)cc1)C1CC2CCC1C2.Cl (stereo not shown)	0.449
Cc1ccc2nc(-c3cccnc3)cc(C(=O)Nc3ccc(F)cc3C)c2c1	12.6
CC(CN1CCOCC1)OC(=O)C(C)(c1ccccc1)c1ccccc1 (stereo not shown)	17.3
O=C(O)CCNS(=O)(=O)c1ccc(Oc2ccccc2)cc1	7.43
CCOc1ccc2nc(NC(=O)CN3CCC(n4nnc5cc(C(F)(F)F)ccc54)CC3)sc2c1	5.58
Nc1c(-c2ccccc2)cnn1-c1cccc(C(F)(F)F)c1	4.48
Cc1cc(N2CCN(C)CC2)nc2ccc(NC(=O)CCC(=O)NCCCOC(C)C)cc12	14
Cc1ccc(C(=O)Nc2cc([N+](=O)[O-])ccc2F)s1	4.56
O=C1CC(c2ccccc2Cl)CC(O)=C1C=NCCCO (stereo not shown)	13.4
c1ccc(C2OCC3(CO2)COC(c2ccccc2)OC3)cc1 (stereo not shown)	1.14
CN(C)c1ccc(/C=N\S(=O)(=O)c2ccccc2)cc1	-7.39
Cc1ccc(C)c(C(=O)CSc2n[nH]c(-c3ccncc3)n2)c1	6.64
OCC[C@@H]1C[C@@H](O)[C@H](O)[C@@]2(CCCc3ccccc3O2)O1	10.2
Cc1cccc(N(C)C(=O)c2cc(S(=O)(=O)N3CCCC3)cn2C)c1	9.21
CCOc1ccc(S(=O)(=O)n2cc(-c3ccccc3)c(N)n2)cc1	8.81
O=C(NCc1ccco1)c1cc(S(=O)(=O)N2CCCCC2)ccc1Cl	-11.7
